# Measurements reported in PMC4336329 (PLoS ONE, 2015).
# Hit rate of the full screen: of about 310,000 compounds, about 2,200 (0.71%) showed an effect of 50% or more. The effect is printed as a negative number. The list shows a part of the results.
# Target: human ether-à-go-go-related gene (hERG) potassium channel (human, UniProt Q12809)
# Test: primary screen, population patch clamp on CHO cells stably expressing hERG
# Chain of human ether-à-go-go-related gene (hERG) potassium channel (Q12809 whole entry, looked up): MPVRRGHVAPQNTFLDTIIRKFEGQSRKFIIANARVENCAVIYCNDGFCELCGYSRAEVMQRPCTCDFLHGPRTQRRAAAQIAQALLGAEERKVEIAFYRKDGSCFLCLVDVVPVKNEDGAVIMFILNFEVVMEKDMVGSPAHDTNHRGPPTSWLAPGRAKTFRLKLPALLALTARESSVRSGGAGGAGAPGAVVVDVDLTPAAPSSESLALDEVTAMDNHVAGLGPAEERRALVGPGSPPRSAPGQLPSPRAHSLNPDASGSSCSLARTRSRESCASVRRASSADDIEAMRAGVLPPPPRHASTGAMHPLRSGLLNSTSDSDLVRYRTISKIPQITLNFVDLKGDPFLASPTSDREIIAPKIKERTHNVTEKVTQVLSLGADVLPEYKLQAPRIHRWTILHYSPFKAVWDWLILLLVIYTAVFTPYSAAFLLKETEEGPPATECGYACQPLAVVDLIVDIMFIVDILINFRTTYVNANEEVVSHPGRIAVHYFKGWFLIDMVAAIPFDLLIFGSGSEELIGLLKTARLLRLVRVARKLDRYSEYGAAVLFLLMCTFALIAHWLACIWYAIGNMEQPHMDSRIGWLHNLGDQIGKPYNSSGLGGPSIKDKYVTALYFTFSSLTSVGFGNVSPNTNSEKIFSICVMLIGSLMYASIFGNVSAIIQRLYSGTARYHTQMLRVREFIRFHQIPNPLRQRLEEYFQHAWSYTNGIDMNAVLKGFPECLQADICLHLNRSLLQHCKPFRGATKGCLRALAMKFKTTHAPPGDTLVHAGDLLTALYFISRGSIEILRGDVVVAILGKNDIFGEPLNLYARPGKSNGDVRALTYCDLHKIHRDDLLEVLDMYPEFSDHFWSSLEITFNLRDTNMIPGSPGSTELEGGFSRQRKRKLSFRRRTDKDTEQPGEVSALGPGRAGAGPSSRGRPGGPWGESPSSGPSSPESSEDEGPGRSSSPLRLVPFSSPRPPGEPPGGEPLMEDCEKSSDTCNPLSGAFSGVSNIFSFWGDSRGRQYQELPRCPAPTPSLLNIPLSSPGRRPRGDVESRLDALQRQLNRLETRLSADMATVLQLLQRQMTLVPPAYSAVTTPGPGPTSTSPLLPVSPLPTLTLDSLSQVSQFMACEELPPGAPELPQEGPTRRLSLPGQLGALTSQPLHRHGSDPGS
row,SMILES,"hERG current change (%, negative = inhibition) at 1uM"
1,CCOC(=O)c1ccc[n+](CC(=O)Nc2ccccc2OC(F)F)c1.[Cl-],6.39%
2,O=C(Nc1ccccc1)NC1CCN(Cc2nnnn2C2CCCCC2)CC1,-19.1%
3,C/C(N)=C(/C#N)C(=O)CSc1nnc(SCc2ccc(Cl)cc2)s1,3.16%
4,O=c1ccc(C(F)(F)F)cn1Cc1cc(=O)n2cc(Br)ccc2n1,13.7%
5,CSc1nc2cc(F)c(F)cc2n1C,1.22%
6,Cc1ccc(N2CC(NS(=O)(=O)c3cccs3)CC2=O)cc1 (centres unmarked),17.7%
7,Cc1ccc(/C=C2\SC(=S)N(CCC(=O)NNC(=O)c3ccncc3)C2=O)cc1,10.8%
8,O=C(CN1CCCCC1)Nc1c2c(nc3ccccc13)N(c1ccccc1)CC2.O=C(O)C(=O)O,11.2%
9,O=C(CCN1CCCCCC1)Nc1ccc(F)c(F)c1,-3.87%
10,CC1CCc2c(sc(NC(=O)Cn3nc(C(F)(F)F)c4c3CCCCC4)c2C#N)C1 (centres unmarked),15.2%
11,S=c1[nH]nc(-c2ccccn2)n1/N=C/c1c(Cl)cccc1Cl,15.8%
12,Cc1cc(C)c2c3c(sc2n1)C(=O)N(Cc1ccccc1)CC(=O)N3,-11.8%
13,Cc1ccc(S(=O)(=O)N2CCCC2CNC(=O)C(=O)NC2CCCC2)cc1 (centres unmarked),-3.13%
14,CCOc1cc(CN2CCN(c3ncccn3)CC2)ccc1OC,8.3%
15,COc1ccc(/C=N/NC(=O)c2snnc2C)c(OC)c1OC,8.23%
16,CC(=O)Nc1ccc(S(=O)(=O)N2CCN(C34CC5CC(CC(C5)C3)C4)CC2)cc1,3.31%
17,CCOc1ccc(-n2cnnn2)cc1S(=O)(=O)NC1CC1,1.61%
18,O=C(O)c1nn(CCOc2cccc(Cl)c2)c(=O)c2ccccc12,3.68%
19,Cc1ccc(SCC(=O)Nc2ccc(N3CCOCC3)cc2)c(C)c1,2.93%
20,O=C(Nc1cccc(NC(=O)N2CCN(c3ccccc3)CC2)c1)N1CCN(c2ccccc2)CC1,-1.69%
21,Cl.OC(COCC1COc2ccccc2O1)CN1CCCCC1 (centres unmarked),-10.8%
22,Cc1nn(Cc2ccccc2)c2c1C(c1ccc(Cl)cc1)C(C#N)=C(N)O2 (centres unmarked),10.8%

row,SMILES,"hERG current change (%, negative = inhibition) at 1uM"
1,CCOC(=O)C1CCCN(C(=S)NC2CCCC2)C1 (centres unmarked),-4.23%
2,O=C(CC(CC(=O)c1ccccc1)c1ccccc1)c1ccccc1,12%
3,Cn1ncc2nnn(-c3ccccc3)c(=O)c21,-0.008%
4,COc1ccc(C(O)C(C)NC(C)C(O)c2ccc(OC)cc2)cc1 (centres unmarked),8.68%
5,O=C(COC(=O)/C=C/c1cccc(Br)c1)NC1CCCCCC1,7.48%
6,COc1ccccc1-n1cc(-c2ccc(Cl)cc2)[nH]c1=O,7.06%
7,COc1ccc(COc2cc(-c3cccc(OC)c3)nc3ccc(NC(=O)c4ccc(N(C)C)cc4)cc23)cc1,13.5%
8,CC(=NCCCO)c1c(O)[nH]c(=O)[nH]c1=O,10%
9,CCCC(C(=O)O)n1c(O)c(C=C2N=c3ccccc3=N2)sc1=S (centres unmarked),6.07%
10,COc1cc(C(=O)C(=O)c2cc(OC)c(O)c(OC)c2)cc(OC)c1O,-1.3%
11,O=C(CN1C(=O)c2ccccc2C1=O)Nc1sc2c(c1C(=O)NCC1CCCO1)CCC2 (centres unmarked),-1.17%
12,CCCc1[nH]nc2c1C(c1ccc(O)c(OC)c1)C(C#N)=C(N)O2 (centres unmarked),1.92%
13,Fc1ccc(-c2n[nH]c(=S)n2CC2CCCO2)cc1 (centres unmarked),12.2%
14,O=C(CN1C(=O)NC(Cc2ccccc2)C1=O)Nc1ccc(F)c(F)c1F (centres unmarked),11.2%
15,CC(=O)Nc1ccc(NC(=O)CSc2nnc(NC(=O)Cc3ccc(F)cc3)s2)cc1,16.4%
16,NC(=O)COc1ncn(-c2ccccc2)n1,8.26%
17,CCCCn1c(N)c(N(CCOC)C(=O)c2ccc3c(c2)OCCO3)c(=O)[nH]c1=O,5.48%
18,Cc1sc2ncn3c(C)nnc3c2c1C,4.43%
19,COc1ccc(CCNC(=O)C(=O)NCC2OCCN2S(=O)(=O)c2ccc(Br)cc2)cc1 (centres unmarked),-4.81%
20,COc1ccc(CN2CCNC(=O)C2CC(=O)NCc2ccc(C)s2)c(OC)c1 (centres unmarked),4.84%
21,COc1ccc(CC(=O)Nc2ccc3c(c2)CCC3)cc1,12.5%
22,O=C1c2cccc3cccc(c23)C(=O)N1CCN1CCN(CC(O)COc2ccc3ccccc3c2)CC1 (centres unmarked),11.8%
